According to PubChem BioAssay AID1508649 (National Center for Advancing Translational Sciences (NCATS), 2021):
Among all 43,000 compounds or so, about 830 (1.9%) were called active. The shares of active, inactive and inconclusive entries below differ from those in the screen. Rule for the calls: active = clear falling dose curves in both reporters; inconclusive = both reporters move, but less clearly or upward; inactive = either reporter flat; the % is the NLuc reporter signal. Potencies of inconclusive entries are left out as doubtful fits.

assay: Cell-based coincidence reporter assay to measure PMP22 gene transcription in S16 Pmp22-F2sN cells - Primary screen; settings: S16 Pmp22-F2sN Schwann cells (luciferase reporters placed in the Pmp22 gene), FLuc/NLuc coincidence luminescence, 24 h; measured here: NLuc reporter readout, at 57.5 µM (top of the series)
In short: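 S16 Schwann cells carrying FLuc/NLuc coincidence reporter in the Pmp22 3' UTR treated with compound 24 h at 37C; FLuc then NLuc luminescence read sequentially by dual-luciferase reagents.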
Potency is the fitted concentration of half-maximal effect; tags give direction and shape of the fitted curve.

| SMILES | Potency |
| --- | --- |
| COc1ccc2c(Sc3ccc(Cl)cc3)c(C(=O)N3CCCCC3)[nH]c2c1 | inconclusive [phenotype inactive, full curve, poor fit] |
| CN(C)c1ccc(CNC(=O)c2ccc3nc(CCc4ccccc4)oc3c2)cc1 | inconclusive [phenotype inactive, single point] |
| CCOC(=O)CSc1nc2cc3c(cc2c(=O)n1CCCCCC(=O)NCc1ccc(OC)cc1)OCO3 | inconclusive [phenotype inactive, single point] |
| CCOc1ccc(CNC(=O)C2CCN(S(=O)(=O)c3cn(C)cn3)CC2)cc1 | inconclusive [phenotype inactive, single point] |
| COc1ccc(F)cc1S(=O)(=O)NCC(c1ccco1)S(=O)(=O)c1ccc(F)cc1 (stereo unspecified) | active: 18.9 µM |
| CCc1ccc(OCC(=O)N(Cc2ccco2)Cc2ccccc2Cl)cc1 | inconclusive [phenotype inactive, single point] |
| O=C(CSc1nc2ccccc2nc1Cc1ccc(Cl)cc1)N1CCCc2ccccc21 | inconclusive [phenotype inactive, partial curve, poor fit] |
| Cn1nc(C(=O)NCc2cccc(Cl)c2)c2c1-c1ccccc1S(=O)(=O)C2 | inactive |
| Cn1c(=O)c2c(-c3ccc(Br)cc3)n(CCc3ccccc3)cc2n(C)c1=O | inconclusive [phenotype inactive, single point] |
| Cc1cc(C)c(/C=C/c2onc(C)c2S(=O)(=O)N2CCC(C(=O)N(C)Cc3ccccc3)CC2)c(C)c1 | inconclusive [phenotype inactive, partial curve] |
| COc1cccc(C(=O)NC2(C(F)(F)F)C(=O)Nc3c2c(=O)[nH]c(=O)n3-c2ccc(C)cc2)c1 (stereo unspecified) | inactive |
| CCc1c(C)sc2c1CCN(C(=O)Nc1cc(OC)c(OC)c(OC)c1)C2c1ccccc1 (stereo unspecified) | inactive |
| NS(=O)(=O)c1ccc(CCNC(=O)CCCCCn2c(=O)[nH]c3ccccc3c2=O)cc1 | inconclusive [phenotype inactive, single point] |
| CCOC(=O)c1oc2ccc(S(=O)(=O)n3nc(-c4ccccc4OC)cc3N)cc2c1C | active: 14.4 µM |
| CCCCN(C)CCNC(=O)c1ccc2c(=O)n(CCc3ccccc3)c(=O)[nH]c2c1 | inconclusive [phenotype inactive, partial curve, poor fit] |
| COc1cc2c(C(=O)N3CCN(c4ccc(C)cc4)C(C)C3)cn(CC(C)C)c(=O)c2cc1OC (stereo unspecified) | inconclusive [phenotype inactive, single point] |
